# Assay results published in the RNAGym collection of RNA variant scans (doi:10.1093/nar/gkz1192).
# The source gives no read counts; variants with many changes may rest on few reads.
# B1: CPEB3 Ribozyme (parent)
# chain: UAACAGGGGGCCACAGCAGAAGCGUUCACGUCGCAGCCCCUGUCAGAUUCUGGUGAAUCUGCGAAUUCUGCUGUAUAUCUC
# Variants of: B1
# Test: self-cleavage, relative activity (ratio to wild type); higher = more cleavage; in vitro, sequencing
# How it was run: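 Relative activity was defined as the cleaved/total read fraction for a variant divided by the same fraction for the unmutated ribozyme. CPEB3 self-cleaving ribozyme libraries were made by rounds of error-prone PCR, barcoded, and transcribed in vitro with T7 RNA polymerase for 5 hours at 37°C, and cleavage ran through transcription plus a 15 min DNase I step before EDTA. Illumina sequencing of template-switched reverse transcripts gave the reads, and DNA sequencing mapped the barcodes. Averages come from three batches, using variants with at least 5 reads.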
row,Variant,self-cleavage
1,CAACAGGGGGCCACAGCAGAAGCGUUCACGUCGCAGCCCCAGUCAGAUUUUGGCGAAUCUGCGAAUUCUGCUGUAUAUCUC [U1C U41A C50U U54C],0.13
2,CAACAGGGGGCCACAGCAGAAGCGUUCACGUCGCAGCCCCCGUCAGAUUCUGGUGGAUUUGCGAAUUCUGCAGUAUAUCUC [U1C U41C A56G C59U U72A],0.32
3,CAACAGGGGGCCACAGCAGAAGCGUUCACGUCGCAGCCCCCGUCAGAUUCUGGUGAGUCUGCGAAUUCUGCGGUAUAUCUC [U1C U41C A57G U72G],0.76
4,CAACAGGGGGCCACAGCAGAAGCGUUCACGUCGCAGCCCCCGUCAGAUUCUGGUGAAUCUGCGAGUUCUGCCGUAUAUUUC [U1C U41C A65G U72C C79U],0.37
5,CAACAGGGGGCCACAGCAGAAGCGUUCACGUCGCAGCCCCCGUCAGAUUCUGGUGAAUCUGUGAAUUCUGCUGUAUAUCUC [U1C U41C C62U],0.23
6,CAACAGGGGGCCACAGCAGAAGCGUUCACGUCGCAGCCCCCAUCGGAUUCUGGUGAAUCUGCGAAUUCUGCUGUAUAUCUC [U1C U41C G42A A45G],0.48
7,CAACAGGGGGCCACAGCAGAAGCGUUCACGUCGCAGCCCCCGAGAGAUUCUGGUGAAUCUGCGAAUUCUGCCGUAUAUCUC [U1C U41C U43A C44G U72C],1.08
8,CAACAGGGGGCCACAGCAGAAGCGUUCACGUCGCAGCCCCCGCCAGAUUCUGGUGAAUCUGCGAAUUCUGCUGUAUAUCUC [U1C U41C U43C],0.41
9,CAACAGGGGGCCACAGCAGAAGCGUUCACGUCGCAGCCCCCGCCAGAUUCUGGUGAAUCUGCGAAUUCUGCUGUAUACCUC [U1C U41C U43C U78C],0.26
10,CAACAGGGGGCCACAGCAGAAGCGUUCACGUCGCAGCCCCCGUCAGAUUCUGGUGAAUCAGCGAAUUCUGCUGUAUAUCUC [U1C U41C U60A],0.58
11,CAACAGGGGGCCACAGCAGAAGCGUUCACGUCGCAGCCCCGGUCAGAUUCUGGUGAAUCUGCGAAUUCUGCUGCAUGUCUC [U1C U41G U74C A77G],0.25
12,CAACAGGGGGCCACAGCAGAAGCGUUCACGUCGCAGCCCCUGACUGAUUCUGGUGCAUCUGCGAAUCCUGCUGUAUAUCUC [U1C U43A A45U A56C U67C],0.15
13,CAACAGGGGGCCACAGCAGAAGCGUUCACGUCGCAGCCCCUGACAGACUCUGGUUAAUCUGCGAAUUCUGCUGUAUAUCUC [U1C U43A U48C G55U],0.27
14,CAACAGGGGGCCACAGCAGAAGCGUUCACGUCGCAGCCCCUGCCAGAUUCUGGUGGAUCUGCGAAUUCUGCUGUUUAUCUC [U1C U43C A56G A75U],0.15
15,CAACAGGGGGCCACAGCAGAAGCGUUCACGUCGCAGCCCCUGCCAGAUUCAGGUGAAUCUGCGAAUUCUGCUGUAUAUCUC [U1C U43C U51A],0.61
16,CAACAGGGGGCCACAGCAGAAGCGUUCACGUCGCAGCCCCUGCCAGAUUCUGGUGAAUCUGCGAAUACUGCUGUAUAUCUC [U1C U43C U67A],0.1
17,CAACAGGGGGCCACAGCAGAAGCGUUCACGUCGCAGCCCCUGCCAGAUUCUGGUGAAUCUGCGAAUUCUGCUGUAUAACUC [U1C U43C U78A],0.71

row,Variant,self-cleavage
1,CAACAGGGGGCCACAGCAGAAGCGUUCACGUCGCAGCCCCUGGCCGAUUCUGGUGAUGCUGCGAAUUCCGCUGUAUAUCUC [U1C U43G A45C A57U U58G U69C],0.07
2,CAACAGGGGGCCACAGCAGAAGCGUUCACGUCGCAGCCCCUGGCAGAUUCUGGUGAGUCUGCGGAUUCUGCUGUAUAUCUC [U1C U43G A57G A64G],0.19
3,CAACAGGGGGCCACAGCAGAAGCGUUCACGUCGCAGCCCCUGUCAGAAUCUGGUGUAUCUGCGAAUUCUGCUGUAUAUCUC [U1C U48A A56U],0.45
4,CAACAGGGGGCCACAGCAGAAGCGUUCACGUCGCAGCCCCUGUCAGACUCUGGUGAAUCUGCGAAUUCUGCUGUAUAUCCC [U1C U48C U80C],0.27
5,CAACAGGGGGCCACAGCAGAAGCGUUCACGUCGCAGCCCCUGUCAGAUCCUGGUGAAUCUGCGAAUUCUGCCGUAUAUCUC [U1C U49C U72C],0.31
6,CAACAGGGGGCCACAGCAGAAGCGUUCACGUCGCAGCCCCUGUCAGAUUCAGGUGUAUCUGCGAAUUCUGCUGUAAAUCUC [U1C U51A A56U U76A],0.49
7,CAACAGGGGGCCACAGCAGAAGCGUUCACGUCGCAGCCCCUGUCAGAUUCAGGUGAAUCUGCGAAUUCUGCUGUGUAUCUC [U1C U51A A75G],0.57
8,CAACAGGGGGCCACAGCAGAAGCGUUCACGUCGCAGCCCCUGUCAGAUUCAGGUGAACCUGCGAAUUCUGCUGUAUAACUC [U1C U51A U58C U78A],0.17
9,CAACAGGGGGCCACAGCAGAAGCGUUCACGUCGCAGCCCCUGUCAGAUUCAGGUGAAUCCGCGAAUUCUGCUGUAUAUCUC [U1C U51A U60C],0.52
10,CAACAGGGGGCCACAGCAGAAGCGUUCACGUCGCAGCCCCUGUCAGAUUCCGGUGAAUACGCGAAUUCUGCUGUAUAUCUC [U1C U51C C59A U60C],0.12
11,CAACAGGGGGCCACAGCAGAAGCGUUCACGUCGCAGCCCCUGUCAGAUUCCGGCGAAUCUGCGAAUUCUGCUGUAUAUCUC [U1C U51C U54C],1.04
12,CAACAGGGGGCCACAGCAGAAGCGUUCACGUCGCAGCCCCUGUCAGAUUCCGGUGAAUCCGCGAAUUCUGCUGUAUAUCUC [U1C U51C U60C],0.27
13,CAACAGGGGGCCACAGCAGAAGCGUUCACGUCGCAGCCCCUGUCAGAUUCCGGUGAAUCUGCGAAUUCUGCUGUAUAUCCC [U1C U51C U80C],0.88
14,CAACAGGGGGCCACAGCAGAAGCGUUCACGUCGCAGCCCCUGUCAGAUUCUGGCGAAUCUGCGAAUUCUGCAGUAUAUCUC [U1C U54C U72A],0.84
15,CAACAGGGGGCCACAGCAGAAGCGUUCACGUCGCAGCCCCUGUCAGAUUCUGGUGAACCUGCGGAUUCUGCUGUAUAUCUC [U1C U58C A64G],0.38
16,CAACAGGGGGCCACAGCAGAAGCGUUCACGUCGCAGCCCCUGUCAGAUUCUGGUGAACCUGCAUAUUCUGCUGUAUAUCUC [U1C U58C G63A A64U],0.16
17,CAACAGGGGGCCACAGCAGAAGCGUUCACGUCGCAGCCCCUGUCAGAUUCUGGUGAAUCAGCGAGUUCCGCUGUAUACCUC [U1C U60A A65G U69C U78C],0.17
